Experimental data reported in the BET-seq Pho4 binding data (Le et al. 2018).
This is one part of the list. The energies were worked out here from pooled read counts, against the library average; single values are noisy.

These sequences were tested against T1, Pho4 (S. cerevisiae) (UniProt P07270) (assay: relative binding free energy (BET-seq); higher = weaker binding). Conditions: reference: library average.
T1 sequence: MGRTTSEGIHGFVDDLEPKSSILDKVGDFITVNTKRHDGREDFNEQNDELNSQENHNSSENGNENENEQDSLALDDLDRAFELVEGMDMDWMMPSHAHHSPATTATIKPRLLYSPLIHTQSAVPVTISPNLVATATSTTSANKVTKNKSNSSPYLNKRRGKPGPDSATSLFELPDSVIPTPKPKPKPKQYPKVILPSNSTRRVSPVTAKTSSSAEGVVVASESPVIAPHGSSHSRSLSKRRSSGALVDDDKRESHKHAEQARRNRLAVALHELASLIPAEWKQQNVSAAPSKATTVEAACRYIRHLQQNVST

| Sequence | relative binding free energy [kcal/mol] |
| --- | --- |
| AGTTACACGTGGTCTT | 0.05 |
| GTTTGCACGTGGAAAT | 0.17 |
| TTTGCCACGTGTCTTT | -0.02 |
| GAAATCACGTGGGGAT | 0.18 |
| TGATTCACGTGGTTGA | 0.23 |
| AGGTTCACGTGTAAGT | 0.41 |
| GACTGCACGTGCGGGG | -0.17 |
| ACTAGCACGTGGGGTG | -0.29 |
| AGGTACACGTGGTAAT | 0.09 |
| GTCATCACGTGGTTAA | 0.21 |
| TGTGGCACGTGAAGGG | 0.15 |
| ATTGTCACGTGAGGAG | 0.19 |
| TAAATCACGTGGGATG | 0.15 |
| TTAAACACGTGGCAGG | 0.02 |
| TTATTCACGTGTGCGC | 0.24 |
| CTAGGCACGTGTGAGT | -0.14 |
| TCAGTCACGTGGGGGT | -0.04 |
| TCTTACACGTGGGGAG | -0.06 |
| TTATACACGTGGGCGA | -0.15 |
| AATTTCACGTGATGGT | 0.38 |
| TATATCACGTGAGTAG | 0.22 |
| AGCGGCACGTGGAGGC | -0.11 |
| ATCGTCACGTGGTGTC | 0.08 |

| Sequence | relative binding free energy [kcal/mol] |
| --- | --- |
| TTATCCACGTGGTTAG | -0.03 |
| GGAAGCACGTGCGAGT | -0.12 |
| GGTTGCACGTGGTCAA | 0.04 |
| GTTTGCACGTGAGTTT | 0.35 |
| CTGTTCACGTGCGTGG | 0.16 |
| GAAAGCACGTGTGAGT | 0.03 |
| CATGGCACGTGATTGG | -0.06 |
| TTGAACACGTGTAATG | -0.04 |
| GCATACACGTGATGGG | 0.23 |
| TGTCGCACGTGGCCGG | -0.15 |
| AGGATCACGTGAAATG | 0.43 |
| TTGGACACGTGAGTGG | 0.26 |
| CGATGCACGTGAAGGG | 0.28 |
| TGTTACACGTGGTCGT | 0.01 |
| ATCTACACGTGTGTTG | 0.04 |
| CCTTACACGTGTGTTT | 0.18 |
| TAGGTCACGTGTAGCG | 0.31 |
| GAAATCACGTGGTAAT | 0.37 |
| TGGATCACGTGTCATT | 0.07 |
| TAGTCCACGTGGTGTA | -0.11 |
| AATGTCACGTGATAAT | 0.24 |
| GACTGCACGTGATGGG | 0.34 |
| GAGGGCACGTGATGGG | 0.05 |

| Sequence | relative binding free energy [kcal/mol] |
| --- | --- |
| TGAGTCACGTGCAGGG | 0.06 |
| AGTTGCACGTGTTATG | -0.01 |
| GGTATCACGTGGCCGT | 0.17 |
| GGGATCACGTGAGAAT | 0.5 |
| GAGCGCACGTGGTATG | -0.04 |
| AACTGCACGTGTGGGT | 0.03 |
| CAGTTCACGTGTATCG | 0.42 |
| TCATTCACGTGTAGTT | 0.18 |
| GGTGGCACGTGTCTTG | -0.01 |
| GGTTTCACGTGAGTGT | 0.46 |
| AGGAGCACGTGTCGGA | 0 |
| TCTGTCACGTGCGGGA | 0.07 |
| TTGAACACGTGGTTGC | -0.06 |
| CATTCCACGTGGGGTT | -0.04 |
| GTGGTCACGTGTATAG | 0.16 |
| TGTTGCACGTGAGATT | 0.21 |
| GTATGCACGTGTAGTA | -0.01 |
| GAGGTCACGTGGAAAT | 0.39 |
| TCGGTCACGTGAAAGG | 0.33 |
| GCTGTCACGTGCGTGT | 0.04 |
| ATTGTCACGTGGCAGT | 0.04 |
| TGTATCACGTGGATTA | 0.11 |
| GGTAGCACGTGTTAGA | -0.1 |

| Sequence | relative binding free energy [kcal/mol] |
| --- | --- |
| TGTTTCACGTGGTGTG | 0.22 |
| CTGTGCACGTGAAGGA | 0.22 |
| GAGGGCACGTGAATGG | 0.18 |
| CGGTCCACGTGTGGCT | 0.21 |
| GATTACACGTGAGGGG | 0.35 |
| GGTATCACGTGCTTGG | 0.02 |
| GTTCGCACGTGGTGTC | -0.13 |
| AGAGTCACGTGGGTTA | 0.06 |
| TTGTTCACGTGGTAGG | 0.31 |
| TCAAGCACGTGAGGTG | 0.21 |
| GTAATCACGTGAGGGC | 0.31 |
| AATATCACGTGGTAGT | 0.02 |
| TGGATCACGTGCTTTA | 0.18 |
| GATATCACGTGGGTAG | 0.05 |
| CGCGGCACGTGGGAGT | -0.2 |
| TTTCTCACGTGGTCTG | 0.01 |
| ATAGTCACGTGATTTT | 0.2 |
| AGAGGCACGTGCGTGG | -0.22 |
| TTAAACACGTGGTGAT | -0.06 |
| AATCGCACGTGGATTG | 0.09 |
| AGTACCACGTGGGGGC | -0.23 |
| GAGATCACGTGGGGCT | 0.07 |
| ATTTGCACGTGCTTGC | 0.04 |

| Sequence | relative binding free energy [kcal/mol] |
| --- | --- |
| TGCAGCACGTGGAGTT | -0.06 |
| GGTCGCACGTGAAGGT | -0.01 |
| GCGTACACGTGTGTGG | 0.05 |
| CTTGTCACGTGGGTTT | 0.07 |
| GCGTGCACGTGGAGAG | 0.09 |
| CTGTGCACGTGTGGAT | 0 |
| TCATTCACGTGAGTTT | 0.37 |
| TTGTACACGTGTTGAT | 0.21 |
| GTGTGCACGTGCAGTT | 0.03 |
| TCTTTCACGTGCGGGT | 0.16 |
| ATGGGCACGTGCTTTT | -0.17 |
| GAGTCCACGTGCGGGG | -0.09 |
| CTTTTCACGTGAGGTA | 0.14 |
| TAAGTCACGTGTTGTG | 0.14 |
| TCGGGCACGTGATCGT | -0.04 |
| TGACTCACGTGAGTGT | 0.26 |
| TGTGTCACGTGTGCCG | 0.11 |
| ATGTGCACGTGATTGC | 0.1 |
| TAGTACACGTGAGATG | 0.38 |
| CTATTCACGTGTGTAG | 0.17 |
| TGGGTCACGTGGCTTT | 0.13 |
| TATCACACGTGATGGG | 0.27 |
| TCGTGCACGTGGTAGT | -0.1 |
